Results reported in PubChem BioAssay AID1768 (National Center for Advancing Translational Sciences (NCATS), 2009).
Among all 270,000 compounds or so, about 620 (0.23%) were called active. Inconclusive means that the source gave no clear call. Such entries were picked first, then a sample of the others. Calls come from the whole dose curve; as a rule, active = well fitted inhibition curve with a large enough effect in the polarisation, with a control signal flat (not every such curve was filed as active); inconclusive = small, poorly fitted or top-dose-only effect, or effect the other way, or a change in a side signal; inactive = no such curve, though single readings can be large or run the other way; the % refers to the polarisation. Where the call is inconclusive, the potency comes from a doubtful curve fit. A note “side channel” means that the fit belongs to a control or component signal, not to the main read-out.

Biological target: Menin (Homo sapiens) (UniProt O00255)
Assay: qHTS Assay for Inhibitors Targeting the Menin-MLL Interaction in MLL Related Leukemias: Competition With Texas Red Labeled MLL-derived Mutant Peptide; for FP activity change, negative = inhibition: % of control where 0% means no effect
Details: fluorescence polarization; FP activity change, negative = inhibition: at 61.6 µM (top of the series)
Potency is the fitted concentration of half-maximal effect; tags give direction and shape of the fitted curve or compound fluorescence and quenching.

UniProt O00255, sequence (O00255 whole entry, looked up): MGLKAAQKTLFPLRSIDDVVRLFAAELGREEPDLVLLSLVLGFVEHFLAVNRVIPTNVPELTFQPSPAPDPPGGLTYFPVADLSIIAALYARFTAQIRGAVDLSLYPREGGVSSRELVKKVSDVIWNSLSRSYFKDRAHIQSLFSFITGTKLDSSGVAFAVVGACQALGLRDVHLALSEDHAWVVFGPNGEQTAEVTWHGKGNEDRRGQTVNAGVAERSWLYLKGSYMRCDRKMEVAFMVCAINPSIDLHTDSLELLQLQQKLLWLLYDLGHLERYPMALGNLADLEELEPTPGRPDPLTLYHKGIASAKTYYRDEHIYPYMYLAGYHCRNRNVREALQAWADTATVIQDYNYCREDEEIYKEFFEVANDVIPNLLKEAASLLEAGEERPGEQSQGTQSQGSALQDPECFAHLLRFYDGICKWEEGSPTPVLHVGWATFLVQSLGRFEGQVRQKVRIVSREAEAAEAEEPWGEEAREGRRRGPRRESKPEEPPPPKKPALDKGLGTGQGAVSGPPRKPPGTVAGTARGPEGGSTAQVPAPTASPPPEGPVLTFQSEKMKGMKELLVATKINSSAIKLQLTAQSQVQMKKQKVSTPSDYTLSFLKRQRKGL

Potency, inconclusive:
COc1ccc(-n2c(SCC(=O)N3CCCCC3)nnc2-c2cccnc2)cc1 39.8 µM [inhibitor, single point], CCOc1cc(CN2CCN(C(=O)c3cccc4ccccc34)CC2)ccc1OC 14.1 µM [fluorescent, side channel, partial curve], COc1cccc(NC(=O)CSc2nc3c(c(-c4ccco4)c2C#N)CCCC3)c1 2.82 µM [inhibitor, full curve], Cc1ccc(S(=O)(=O)N2CCC(C(=O)NCCc3ccccc3)CC2)cc1 39.8 µM [fluorescent, side channel, single point], COc1ccccc1NC(=O)c1ccc(NC(=O)COC(=O)C2CCCCC2)cc1 39.8 µM [quencher, side channel, single point], CCn1ccc2cc(OC)ccc2c1=S 35.5 µM [inhibitor, partial curve, poor fit], N#CC(Cc1ccc(OC(F)F)cc1)c1nc2ccccc2[nH]1 (stereo not drawn) 22.4 µM [quencher, side channel, single point], Cc1ccc(C)c(N(CC(=O)N/N=C/c2ccc(-c3ccc([N+](=O)[O-])cc3)o2)S(=O)(=O)c2ccccc2)c1 10 µM [quencher, side channel, partial curve], Brc1ccc(/C=N/Nc2ncnc3c2cnn3Cc2ccccc2)cc1 1.78 µM [quencher, side channel, full curve], COc1cccc(/C=C2\CCc3ccccc3C2=O)c1 39.8 µM [fluorescent, side channel, single point], O=C(Nc1ccc(Br)c2ccccc12)c1ccc2ccccc2c1O 25.1 µM [quencher, side channel, partial curve], CCOC(=O)N1CCN(C(=O)/C(=C/c2cccc3ccccc23)NC(=O)c2ccc(OC)cc2)CC1 7.08 µM [fluorescent, side channel, full curve], COc1ccccc1-n1c(SCC(=O)Nc2ccc(NC(C)=O)cc2)nc2c([nH]c3ccccc32)c1=O 39.8 µM [inhibitor, single point], C/C(N)=C(/C#N)C(=O)CSc1nc2scc(-c3ccc(F)cc3)c2c(=O)n1C 10 µM [quencher, side channel, partial curve, poor fit], CCN(CC)c1ccc(/C=N/NC(=O)c2cccc(S(=O)(=O)Nc3ccccc3OC)c2)c(O)c1 14.1 µM [quencher, side channel, partial curve], c1ccc(C2CCCN(Cc3nc(CC4CC4)no3)CC2)cc1 (stereo not drawn) 20 µM [fluorescent, side channel, partial curve], O=C(Nc1ccccc1C(F)(F)F)c1ccc(CN2CCC(Cc3ccccc3)CC2)cc1 8.91 µM [fluorescent, side channel, full curve, poor fit], CCN1C(=O)/C(=C/c2cnn(CC)c2C)SC1=S 39.8 µM [inhibitor, single point], O=C(Nc1ccccc1)c1cccnc1Nc1ccccc1 22.4 µM [quencher, side channel, partial curve], CSCC[C@H](NC(=O)[C@@H]1CCCN1C(=O)CNC(=O)[C@H](CCCCN)NC(=O)[C@H](Cc1cnc[nH]1)NC(=O)[C@H](CO)NC(=O)[C@H](CC(C)C)NC(=O)[C@H](CCCNC(=N)N)NC(=O)[C@@H]1CCCN1C(=O)[C@H](CCCNC(=N)N)NC(=O)[C@H](CCC(N)=O)NC(=O)[C@H](CCCNC(=N)N)NC(=O)[C@H](CCCNC(=N)N)NC(=O)[C@H](Cc1ccccc1)NC(=O)[C@@H](N)CCCCN)C(=O)N1CCC[C@H]1C(=O)N[C@@H](Cc1ccccc1)C(=O)O 11.2 µM [inhibitor, partial curve], COc1ccc(Cc2nnc(NC(=O)c3ccccc3F)s2)cc1OC 14.1 µM [inhibitor, partial curve], CCOC(=O)C1=C(Cn2cnc3ccccc32)NC(=O)NC1c1ccc(OC)cc1 (stereo not drawn) 39.8 µM [fluorescent, side channel, single point], CC1CCN(CC(=O)Nc2ccc(S(=O)(=O)N3C(C)CCCC3C)cc2)CC1 (stereo not drawn) 15.8 µM [inhibitor, single point], O=S(=O)(c1ccc2c(c1)OCCO2)N1CCc2ccccc21 7.08 µM [quencher, side channel, partial curve], O=C(CSc1nc2ccccc2o1)Nc1nc(-c2ccccc2)c(-c2ccccc2)s1 31.6 µM [inhibitor, single point], CCN(CC)CCNCC1C(=O)O[C@@H]2C[C@@]3(C)CCC[C@H](C)C3=C[C@H]12 (stereo partly drawn) 3.98 µM [inhibitor, partial curve], Cc1ccccc1NS(=O)(=O)c1cc(C(=O)Nc2ccccc2-c2ccccc2)ccc1Cl 39.8 µM [inhibitor, single point], CCOC(=O)Cn1c(=O)n(Cc2ccccc2)c(=O)c2cccnc21 2.82 µM [inhibitor, partial curve], O=C(N/N=C/c1cccs1)c1cccc(NC(=O)c2ccc(Cl)cc2)c1 39.8 µM [inhibitor, single point], CCOC(=O)C1=C(O)/C(=C/c2ccc(-c3ccccc3C(=O)O)o2)SC1=Nc1ccc(OC)cc1 11.2 µM [quencher, side channel, partial curve], CC1CCN(c2ccc(C(=O)Nc3ccc4c(c3)OCO4)cc2[N+](=O)[O-])CC1 12.6 µM [quencher, side channel, partial curve], O=[N+]([O-])c1cc2oc3c(c2c(C=NCc2ccncc2)c1O)CCCC3 17.8 µM [quencher, side channel, single point], CC1=NN(c2ccccc2)C(=O)/C1=C/c1c(O)n(-c2ccc(F)cc2)[nH]c1=O 10 µM [quencher, side channel, partial curve], Cc1ccc(N=Cc2nc(-c3ccco3)oc2O)cc1 22.4 µM [quencher, side channel, single point], CCOc1cc(N2CCOCC2)c(OCC)cc1NC1=NCCCCC1 25.1 µM [inhibitor, single point], COc1cc(/C=C(\C#N)c2nc(-c3cc4ccccc4oc3=O)cs2)ccc1O 3.16 µM [quencher, side channel, full curve], Clc1ccccc1CSc1nnc(-c2ccco2)c(-c2ccco2)n1 22.4 µM [quencher, side channel, partial curve], O=C(Nc1nc(-c2ccc3c(c2)OCO3)cs1)C1COc2ccccc2O1 (stereo not drawn) 39.8 µM [inhibitor, single point], CN(C)/C=N/C1=C(C#N)C(c2cccs2)c2ccc3ccccc3c2O1 (stereo not drawn) 25.1 µM [quencher, side channel, partial curve], NS(=O)(=O)c1ccc(N=Nc2ccc(=O)[nH]c2O)cc1 25.1 µM [quencher, side channel, partial curve], N#CC1=C(SCC(=O)c2ccc(Br)cc2)NC2=C(C(=O)CCC2)C1c1ccco1 (stereo not drawn) 39.8 µM [quencher, side channel, single point], COc1cc2cc(CN(Cc3cccs3)C(=S)Nc3ccccc3)c(=O)[nH]c2cc1OC 39.8 µM [inhibitor, single point], CN(C)c1ccc2nc3c(=O)[nH]c(=O)nc-3n(CC(O)C(O)C(O)CO)c2c1 (stereo not drawn) 25.1 µM [fluorescent, side channel, partial curve], COCCCNC(=O)CSc1nc2ccccc2c(=O)n1CCCN1CCCCC1 0.631 µM [inhibitor, full curve, poor fit], CCCCC1CCC(C(=O)Nc2ccc(S(=O)(=O)Nc3nccs3)cc2)CC1 (stereo not drawn) 22.4 µM [quencher, side channel, single point], Fc1ccc(CN2CCN(c3ncnc4scc(-c5ccccc5)c34)CC2)cc1 7.94 µM [fluorescent, side channel, partial curve], C#CCN(C(=O)c1ccc(OC2CCN(Cc3ccccn3)CC2)cc1)C1CCCCC1 8.91 µM [fluorescent, side channel, full curve, poor fit]

FP activity change, negative = inhibition, inactive:
O=C(O)CCCCCNS(=O)(=O)c1cccc2c1C(=O)c1ccccc1C2=O -3.77%, O=C(O)CCc1c(C(=O)O)[nH]c2cc(Cl)cc(Cl)c12 19.7%, COc1ccc(-n2c(=O)c(-c3ccc(Cl)cc3)nc3cnc(N4CCOCC4)nc32)cc1 11.2%, Cc1cc(C)c(C)c(S(=O)(=O)N2CCN(CC(=O)Nc3ccc([N+](=O)[O-])cc3)CC2)c1C 21%, COc1cccc(NC(=O)CN(C)C(C)C(=O)Nc2ccc(C(C)=O)cc2)c1 (stereo not drawn) 11.6%, C=CCc1cccc2cc(C(=O)O)c(=O)oc12 2.51%
